Literature values in US8058242B2, “Chimeric proteins with natriuretic activity” (The University of Queensland, priority 2004, dated 2011).

Test system: conscious rabbits
Details: doses of 1, 2, and 4 μg/kg/min (Woods et al., 1989); cited from earlier work

CC[C@H](C)[C@@H]1NC(=O)[C@H](CCCNC(=N)N)NC(=O)[C@H](CC(=O)O)NC(=O)[C@H](CCSC)NC(=O)[C@H](CCCNC(=N)N)NC(=O)CNC(=O)CNC(=O)[C@H](Cc2ccccc2)NC(=O)[C@@H](NC(=O)[C@H](CO)NC(=O)[C@H](CO)NC(=O)[C@H](CCCNC(=N)N)NC(=O)[C@H](CCCNC(=N)N)NC(=O)[C@H](CC(C)C)NC(=O)[C@@H](N)CO)CSSC[C@@H](C(=O)N[C@@H](CC(N)=O)C(=O)N[C@@H](CO)C(=O)N[C@@H](Cc2ccccc2)C(=O)N[C@@H](CCCNC(=N)N)C(=O)N[C@@H](Cc2ccc(O)cc2)C(=O)O)NC(=O)CNC(=O)[C@H](CC(C)C)NC(=O)CNC(=O)[C@H](CO)NC(=O)[C@H](CCC(N)=O)NC(=O)[C@H](C)NC(=O)CNC1=O [hANP, reference compound]
maximum reduction in blood pressure: 14%
